Assay results: the RNAGym collection of RNA variant scans (doi:10.1093/nar/gkz1192)
The source gives no read counts; variants with many changes may rest on few reads.

B1: CPEB3 Ribozyme (parent)
chain: UAACAGGGGGCCACAGCAGAAGCGUUCACGUCGCAGCCCCUGUCAGAUUCUGGUGAAUCUGCGAAUUCUGCUGUAUAUCUC

Variants of: B1
Assay: self-cleavage, relative activity (ratio to wild type); higher = more cleavage; in vitro, sequencing
Outline: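 Relative activity compares each variant's cleaved/total read fraction with that of the unmutated ribozyme. To get these fractions, barcoded CPEB3 ribozyme libraries from rounds of error-prone PCR were transcribed with T7 RNA polymerase for 5 hours at 37°C and then given 15 min of DNase I treatment before EDTA was added. The RNAs were reverse transcribed with template switching and sequenced on Illumina, and DNA sequencing linked barcodes to variants. A minimum of 5 reads applied, and three batches were averaged.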

Variant	self-cleavage
UGACAGGGGGCCACAGCAGCAGCGUUCACGUCGCAGCCCCUGUCAGAUUCUGGCGAAUCUGGGAAUUGUGCUGUAUAUCCC [A2G A20C U54C C62G C68G U80C]	0.16
UGACAGGGGGCCACAGCAGGAGCGUUCACGUCGCUGCCCCUGUCAGAUUCUGGUGAAUUUGCGAAUUCUGCUGUAUAUCUC [A2G A20G A35U C59U]	0.05
UGACAGGGGGCCACAGCAGGAGCGUUCACGUUGCAGCCCCUGUCAGAUUCUGGUGAAUCUGCGAAUUCUGCCGUAUGUCUC [A2G A20G C32U U72C A77G]	0.26
UGACAGGGGGCCACAGCAGGAGCGUUCACGUCGCAGCCACUGUCAGAUUCUGGUGAAUCUGCGAAUACUGCUGUAUAUCUC [A2G A20G C39A U67A]	0.07
UGACAGGGGGCCACAGCAGGAGCGUUCACGUCGCAACCCCUGUCAGAUUCUGGUAAAUCUGCGAAUUCUGCUGUAUAUCUC [A2G A20G G36A G55A]	0.2
UGACAGGGGGCCACAGCAGGAGCGUUCACGUCGCAGCCCCUGUCAGAUUCUGAUGUAUCUGCGAAUUCUGCUGUAUAUCUC [A2G A20G G53A A56U]	0.41
UGACAGGGGGCCACAGCAGGAGCGCUCACGUCGCAGCCCCUGUCAGAUUCUGGUGAAUCUGCGAAUUCUGCUGUAUAUCUC [A2G A20G U25C]	0.78
UGACAGGGGGCCACAGCAGGAGCGGUCACGUCGCAGCCCCCGUCAGAUUCUGGUGAAUCUGCGAAUUCCGCUGUAUAUCUC [A2G A20G U25G U41C U69C]	0.3
UGACAGGGGGCCACAGCAGGAGCGUACGCGUCGCAGCCCCUGUCAGAUUCUGGUGAAUCUGCGAGUUCUGCUGUAUAUCUC [A2G A20G U26A A28G A65G]	0.37
UGACAGGGGGCCACAGCAGGAGCGUCCACGUCGCAGCCCCUGUCAGAUUCUGGUGAAUCUGCGAAUUCUGCUGUAUAUCUC [A2G A20G U26C]	0.56
UGACAGGGGGCCACAGCAGGAGCGUUCACGCCGCAGCCCCUGUCAGAUUCUGGCGAAUCUGCGAAUUCUGCUGCAUAUCUC [A2G A20G U31C U54C U74C]	0.33
UGACAGGGGGCCACAGCAGGAGCGUUCACGUCGCAGCCCCAGUCAGAUACUGGUGAAUCUGCGGAUUCUGCUGUAUAUCUC [A2G A20G U41A U49A A64G]	0.26
UGACAGGGGGCCACAGCAGGAGCGUUCACGUCGCAGCCCCUGUCAGAUUCCGGUGAAUCUGCGAAUUCUGCUGUAUAUCUC [A2G A20G U51C]	0.68
UGACAGGGGGCCACAGCAGGAGCGUUCACGUCGCAGCCCCUGUCAGAUUCUGGUGAAUCCGCGAAUUCUGCUGUAUGUCUC [A2G A20G U60C A77G]	0.31
UGACAGGGGGCCACAGCAGUAGCGUUCUCGUCGCAGCCCCUGUCAGAUUCUGGUGAAUCUGCGAAUUCUGCUGUAUAUCUC [A2G A20U A28U]	0.28
UGACAGGGGGCCACAGCAGUAGCAUUCACGUCGCAGCCCCUGUCAGAUUCUGGUGAAUCAGCGAAUUCUGCUGUAUAACUC [A2G A20U G24A U60A U78A]	0.14
UGACAGGGGGCCACAGCAGACGAGUUCACGUCGCAGCCCCUGUCAGAUUCUGGUGAAUCUGCGGAUUCUGCUGUAUAACUC [A2G A21C C23A A64G U78A]	0.22

Variant	self-cleavage
UGACAGGGGGCCACAGCAGAGGCGUUCACGUCGCGGCCCCUGACAGAUUCUGGUGAAUCUGCGAAUUCAGCUGUAUAUCUC [A2G A21G A35G U43A U69A]	0.58
UGACAGGGGGCCACAGCAGAGGCGUUCACGUCGCAGCCCCUGUCGGAUUCUGGUGAAUCUGCGAAUUCUGCUGUAUAUCUC [A2G A21G A45G]	0.11
UGACAGGGGGCCACAGCAGAGGCGUUCACGUCGCAGCCCCUGUCAGAUUCUGGUGCAUCGGCGAAUUCUGCUGUAUAUCUC [A2G A21G A56C U60G]	0.35
UGACAGGGGGCCACAGCAGAGGAGUUCACGUCGCAGCCCCUGUCAGAUUCCGGGUAAUCUGCGAAUUCUGCUGUAUAUCUC [A2G A21G C23A U51C U54G G55U]	0.09
UGACAGGGGGCCACAGCAGAGGCGUUUACGUCGCAGCCCCAGUCAGAUUCUGGUGAAUCUGCGGAUUCUGCUGUAUAUCUC [A2G A21G C27U U41A A64G]	0.07
UGACAGGGGGCCACAGCAGAGGCGUUCACGUCGGAGCCCCUGUCAGAUUCUGGUGAAUCUGCGAAUUCUGCAGUAUACCUC [A2G A21G C34G U72A U78C]	0.06
UGACAGGGGGCCACAGCAGAGGCGUUCACGUCGCAGCCCCUGUCAGAUUAUGGUGAAUCUGCGAAUUCUGCUGUAUAUCUC [A2G A21G C50A]	0.07
UGACAGGGGGCCACAGCAGAGGCGUUCACGUCGCACCCCCAGUCAGAUUGUGGUGAAUCGGCGAAUUCUGCUGUAUAUCUC [A2G A21G G36C U41A C50G U60G]	0.17
UGACAGGGGGCCACAGCAGAGGCGUUCACGUCGCAGCCCCUGUCAGAUUCUCGUGAAUCUGCGAAUUCUGCUGUAUAUCUC [A2G A21G G52C]	0.24
UGACAGGGGGCCACAGCAGAGGCGUCCACGUCGCAGCCCCUGUCAGAUUCUGGUGUAUCUGCGAAUUCUGCUGUAUAUCUC [A2G A21G U26C A56U]	0.09
UGACAGGGGGCCACAGCAGAGGCGUUCACGUCGCAGCCCCUGUCAGAUUCUGGUGAAUCUGCGAAUUCCGCUGUAUAUCUC [A2G A21G U69C]	0.38
UGACAGGGGGCCACAGCAGAUGCGUUCACGUCGCAGCCCCUGUCAGAUACUGGUGAAUCUGCGAAAUCUGCUGUAUAUCUC [A2G A21U U49A U66A]	0.13
UGACAGGGGGCCACAGCAGAUGCGUUCACGUCGCAGCCCCUGUCAGAUUCUGGAGAAUCUGCGAAUUCUGCUGUAUACCUC [A2G A21U U54A U78C]	0.1
UGACAGGGGGCCACAGCAGAAGCGUUCCCGUCGCUGCCCCUGUCAGAUUCCGGUGAAUCUGCGAAUUCUGCUGUAUGUCUC [A2G A28C A35U U51C A77G]	0.06
UGACAGGGGGCCACAGCAGAAGCGUUCCCGUCGCAGCCCCAGUCAGAUUCUGGUGAAUCUGCGAAUUCUGCUGUAUAUCUC [A2G A28C U41A]	0.07
UGACAGGGGGCCACAGCAGAAGCGUUCCCGUCGCAGCCCCUGUCAGAUUCUGGUGAACCUGCGAAUUCUGCUGUAUAUCUC [A2G A28C U58C]	0.14
UGACAGGGGGCCACAGCAGAAGCGUUCGCGUCGCAGCCCCUGUCAGGUUCUGGUGAAUCUGCGAAUUCUGCUGUAUAUCUC [A2G A28G A47G]	0.43
